In paper PMC6919601, “Identification of Plasmodium dipeptidyl aminopeptidase allosteric inhibitors by high throughput screening” (PLoS ONE, 2019):
“And” between values parts separate entries of the source, which are not always exact repeats. Identical values can stand only once. The whole screen tested about 110,000 compounds, of which about 230 (0.21%) showed an effect of 50% or more. This is one part of the list.

biological target: DPAP1 (Plasmodium falciparum, UniProt Q8IIJ9); assay: primary screen, percent inhibition; read by cleavage of a fluorogenic dipeptide substrate; higher = more effect of the substance; design: species or system P. falciparum D10 trophozoite lysates; single well
Sequence (Q8IIJ9 whole entry, looked up): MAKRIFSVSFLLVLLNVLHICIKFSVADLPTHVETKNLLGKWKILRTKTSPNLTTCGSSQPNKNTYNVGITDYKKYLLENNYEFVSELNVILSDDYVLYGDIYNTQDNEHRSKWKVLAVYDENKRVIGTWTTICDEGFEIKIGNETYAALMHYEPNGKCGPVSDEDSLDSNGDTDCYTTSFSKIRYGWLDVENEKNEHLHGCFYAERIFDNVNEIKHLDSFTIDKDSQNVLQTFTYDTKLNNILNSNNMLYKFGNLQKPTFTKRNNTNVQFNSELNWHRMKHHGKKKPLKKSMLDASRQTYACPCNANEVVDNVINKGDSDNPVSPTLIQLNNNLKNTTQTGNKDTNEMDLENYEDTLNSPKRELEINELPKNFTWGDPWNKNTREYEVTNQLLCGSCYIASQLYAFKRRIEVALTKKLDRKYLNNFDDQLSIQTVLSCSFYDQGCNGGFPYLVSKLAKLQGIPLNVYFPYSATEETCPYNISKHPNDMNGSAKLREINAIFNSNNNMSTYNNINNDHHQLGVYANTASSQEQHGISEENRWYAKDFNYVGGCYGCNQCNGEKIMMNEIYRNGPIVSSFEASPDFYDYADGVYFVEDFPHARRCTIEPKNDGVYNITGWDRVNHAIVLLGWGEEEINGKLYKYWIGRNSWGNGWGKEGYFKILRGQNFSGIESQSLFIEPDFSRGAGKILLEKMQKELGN
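Also: 30 min substrate incubation versus DMSO and 10 µM JCP410 controls.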

Compound | % Inhibition @ 10 uM
Cc1cc(C)c(-n2nnnc2SCc2nc(N)nc(N3CCOCC3)n2)c(C)c1 | -1.24%
COc1ccc(OCC(=O)N2N=C(C(F)F)CC2(O)C(F)F)cc1 (stereo not shown) | 0.709%
O=C(NCCc1cccs1)C1CCCN(S(=O)(=O)N2CCOCC2)C1 (stereo not shown) | -4.68%
O=C(O)c1ccc(CN2CCN(Cc3ccccc3)CC2)cc1 | 5.42%
CN1CCCN(C/C=C/c2ccc(N(C)C)cc2)CC1 | -1.5%
O=C(NCc1ccccc1)C1CC(=O)N(c2ccc(OCC(=O)N3CCCC3)cc2)C1 (stereo not shown) | 4.05%
OCC(O)C1OC(Nc2ccc(Br)cc2)C(O)C1O (stereo not shown) | -1.74%
Cn1cc(CNC(=O)C23CC4CC(CC(C4)C2)C3)cn1 | 1.61%
N#CC1=C(N)Oc2[nH]nc(-c3ccc(F)cc3)c2C1c1cccc(F)c1 (stereo not shown) | -1.84%
CC1CCCCN1CCNC(=O)Cn1c(=O)c2cccn2c2cccnc21 (stereo not shown) | -0.959%
COc1ccccc1CNC(=O)C1CCCN(c2nc3ccsc3c(=O)s2)C1 (stereo not shown) | 6.03%
Cc1cc(C)c(C)c(S(=O)(=O)NCc2ccc(C(=O)Nc3ccncc3)cc2)c1C | -1.84%
CSc1ccc(-c2nc(O)c3c(n2)Oc2ccccc2C3)cc1 | 3.61%
CCOC(=O)N1CCN(c2c(NCCCOC)c(=O)c2=O)CC1 | 1.93%
CC(=O)Nc1ccc(S(=O)(=O)Nc2ccc(C)cc2C)cc1 | 3.35%
c1ccc2c(NCC3CCCO3)nc(N3CCCCC3)nc2c1 (stereo not shown) | 2.84%
CC(=O)Nc1ccc(NC(=O)CN(c2ccccc2C)S(C)(=O)=O)cc1 | -15.1%
Cc1ccc(-c2cc(C(F)(F)F)n3ncc(C(=O)NCc4cnn(C)c4C)c3n2)cc1 | 1.79%
O=C(CN1C(=O)c2ccccc2C1=O)Nc1cccc(C(F)(F)F)c1 | -6.68%
Cc1cccc(C(=O)Nc2scc(-c3ccccc3)c2C(=O)O)c1 | -2.03%
O=C(Nc1ccc(OCc2ccccc2)cc1)C1CCN(S(=O)(=O)c2ccc(F)cc2)CC1 | -2.98%
O=C1Nc2ccccc2C(O)(C(=O)O)N1c1ccccc1 (stereo not shown) | 0.774%
Clc1ccc(-c2nnc(-c3ccccc3Cl)o2)cc1 | 0.815%
O=C(OCc1cccc(COC(=O)c2ccc([N+](=O)[O-])cc2)n1)c1ccc([N+](=O)[O-])cc1 | 0.00178%
COc1ccc(N2CCN(Cc3cc(C)c(OC)cc3C)CC2)cc1 | -2.81%

Compound | % Inhibition @ 10 uM
CCc1ccc(OCC(=O)NC2C3CC4CC(C3)CC2C4)cc1 (stereo not shown) | -4.43%
O=C(O)c1ccc(NCc2c(Cl)cccc2Cl)cc1 | 3.37%
Cc1cc(C)c2nc(N3CCC(C(=O)NCc4ccccn4)CC3)sc2c1 | 4.95%
Cc1ccc(-n2cc(-c3ccccc3)c3c(NCCOCCO)ncnc32)cc1Cl | 3.36%
Cc1oc(-c2ccc(C(=O)NCc3ccc4c(c3)OCO4)cc2)nc1CS(=O)c1ccccc1 (stereo not shown) | -0.767%
CCS(=O)(=O)c1cc([N+](=O)[O-])c(Nc2ccc3ccccc3c2)s1 | -0.128%
Cc1sc2ncn(CC(=O)NCCCC(=O)N3CCN(Cc4ccccc4)CC3)c(=O)c2c1C | -0.74%
COc1ccc(C(=O)Nc2nnc(C(F)(F)F)s2)cc1 | -5.96%
COc1ccccc1N1CCN(C(=O)C2C3C=CC(C3)C2C(=O)O)CC1 (stereo not shown) | -3.92%
Cn1c(Oc2cccc(Cl)c2)nc2c1c(=O)n(Cc1ccc(F)cc1)c(=O)n2C | 4.93%
CCC1CCCCN1C(=S)NC(=O)c1ccccc1 (stereo not shown) | 2.44%
Cc1cc(C)n2nc(CNC(=O)c3ccc(Br)o3)nc2n1 | 2.84%
Cc1cc(C)cc(NC(=O)c2ccc(Cl)c([N+](=O)[O-])c2)c1 | 0.135%
O=C1/C(=C/c2cccc(O)c2)N2CCC1CC2 | 0.317%
COc1ccc(NC(=O)CN2C(=O)S/C(=C/c3cc(C)n(-c4ccc(O)cc4)c3C)C2=O)cc1 | -3.69%
CCCCN(CCNC(=O)Cn1nc(Cc2cccnc2)c2ccccc2c1=O)Cc1ccco1 | 1.24%
CCOC(=O)c1sc(NC(=O)COc2ccccc2C(C)C)c(C(=O)OCC)c1C | 5.94%
Cc1ccc(S(=O)(=O)Nc2ccc(S(=O)(=O)Nc3cc(C)nc(C)n3)cc2)cc1 | -1.42%
COc1cccc(-c2nc3cc(NC(=O)c4cncc(Br)c4)ccc3o2)c1 | -1.41%
CN(C)C1(c2nnnn2C(/C=C\c2ccc(Cl)cc2Cl)C(C)(C)C)CCCC1 (stereo not shown) | 11.6%
Cc1cc(C(=O)Nc2c(C)nn(Cc3ccc(Cl)c(Cl)c3)c2C)no1 | -0.591%
Cc1oc(-c2ccc(C(=O)N3CCOCC3)cc2)nc1CS(=O)c1ccccc1 (stereo not shown) | 4.44%
Cc1nc2ncccn2c1-c1csc(Nc2ccc(O)cc2)n1 | 2.65%
O=C(O)c1cnn2c(C(F)(F)F)cc(-c3ccccc3)nc12 | -1.99%
COc1ccccc1C(=O)O/N=C(\N)c1ccccn1 | -3.06%

Compound | % Inhibition @ 10 uM
CS(=O)(=O)CCC(C(=O)N1CCN(c2ccccn2)CC1)N1Cc2ccccc2C1=O (stereo not shown) | 3.62%
CC(C)=CCC/C(C)=C/CN(C)C1CCN(C)CC1 | -7.02%
O=C(C1CCCN(S(=O)(=O)c2ccc3nc(O)ccc3c2)C1)N1CCCC1 (stereo not shown) | -4.02%
CCCC[C@H](NC(=O)[C@H](CS(=O)(=O)Cc1ccccc1Cl)NC(=O)N1CCOCC1)C(=O)c1nc2ccccc2o1 | -3.49%
COc1cc(/C=C2/C(=O)N=C(N)N2C)cc(OC)c1OC | -0.436% and -0.85%
O=C1NCCCC[C@@H]1NC1CCCCCCC1 | -1.81%
COc1ccccc1/C=C/CNc1ccccc1Cl | 5.03%
COc1ccc(CSC[C@H](NC(=O)c2ccccc2)C(=O)NCC#N)cc1 | -6.98%
CCCOC(=O)c1ccc(NC(=O)c2cccc(C)c2)cc1 | -1.62%
CCOc1ccc(CNCc2c(C(=O)O)c(C)n(Cc3ccccc3C)c2C)cc1 | -1.92%
Cc1ccccc1CSc1ccc2nnc(CCNS(=O)(=O)c3ccccc3)n2n1 | 5.09%
CC[C@H](NC(=O)C(NC(=O)c1ccc(-c2ccccc2Cl)c(Cl)c1)C1CCCCC1)C(=O)c1nc2ccccc2o1 (stereo partly shown) | -0.207%
CCOc1ccccc1C1CC(=O)NC(SCc2cccc3ccccc23)=C1C#N (stereo not shown) | 7.1%
CC1OC(Nc2cc(Cl)ccc2C(=O)O)C(O)C(O)C1O (stereo not shown) | 1.93%
Cc1ccc(C(=O)N/C(=C\c2ccco2)C(=O)NC2CCN(Cc3ccccc3)CC2)cc1C | -4.65%
CN1CCN(c2ccc([N+](=O)[O-])c(Sc3nc4ccccc4[nH]3)c2)CC1 | -2.02%
CCOC(=O)C1=C(NC(=O)c2ccc(C)cc2)S/C(=C\c2ccc(O)c(OC)c2)C1=O | -1.92%
CC1CCCC(N(CCCNC(=O)c2noc3c2COc2ccccc2-3)Cc2ccco2)C1C (stereo not shown) | 33.9%
Cc1nn(-c2ccccc2)c2c1C1(C(=O)Nc3cc(Cl)ccc31)C(C#N)=C(N)O2 (stereo not shown) | -0.725%
NC(CC(O)c1ccc([N+](=O)[O-])cc1)C(Cl)(Cl)Cl (stereo not shown) | -1.29%
COc1cccc2c1OC1(C)CC2NC(=O)N1 (stereo not shown) | 0.738%
COc1ccc2ncc(S(=O)(=O)c3ccc(C)cc3)c(N3CCC4(CC3)OCCO4)c2c1 | -3.5%
Cc1ccc(NC(=O)c2ccccc2N(C)S(=O)(=O)c2ccccc2)c(C)c1 | -1.51%
COc1ccc(CN2CCN(Cc3ccccc3Br)CC2)cc1 | -7.09%
COc1ccccc1C(CNC(=O)c1oc2cc(C)c(C)cc2c1C)N(C)C (stereo not shown) | 2.41%

Compound | % Inhibition @ 10 uM
COc1ccc(/C=N/OCC(=O)Nc2sc3c(c2C#N)CC(C)(C)NC3(C)C)cc1OC | -5.26%
CCC(Sc1nc(C)c(Cc2ccccc2)c(O)n1)C(=O)O (stereo not shown) | 1.25%
CCn1c2ccccc2c2nnc(S)nc21 | 38%
CC12CN3CC(C)(CN(C1)C3c1ccccc1)C2=O (stereo not shown) | -0.807%
COc1ccc(Br)cc1CN1CCN(Cc2ccc(OC)c(OC)c2OC)CC1 | -1.6%
CN(CCCNC(=O)CCC(=O)N1Cc2ccccc2Oc2ncccc21)Cc1ccccc1 | 4.69%
O=C(NC1=NCCS1)c1sc2ccccc2c1Cl | 3.82%
CCOc1ccc(Nc2nc(-c3ccccn3)cs2)cc1 | -9.68%
Cc1cc(C)n(-c2ccccc2Cl)c(=O)c1C(=O)O | 3.99%
Cc1oc(-c2cccs2)nc1CS(=O)CC(=O)NC1CCCC1 (stereo not shown) | -0.138%
O=C(NCCc1ccc(Cl)cc1)c1ccc2c(c1)ncn2C1CCCC1 | 0.387%
NC(=O)Cn1c(S(=O)(=O)Cc2ccccc2)nc2ccccc21 | 1.62%
COc1cc(CNCCO)cc(Cl)c1OCc1ccccc1Cl | -6.43%
Cc1sc(NC(=O)C2CC2c2ccccc2)nc1-c1ccccc1 (stereo not shown) | -0.67%
CCCN1C(=O)NC(C(F)(F)F)(C(F)(F)F)C2=C1CC(C)(C)CC2=O | 1.91%
COn1c(-c2ccccc2)nc2c1CCc1nonc1-2 | 4.08%
Cc1cc2n(n1)CCCN2C(=O)CCC(=O)N1CCOCC1 | 1.63%
CCn1ncc(Br)c1C(=O)Nc1ccn(Cc2ccccc2)n1 | -3.18%
CCC(C)NC(=O)C(=O)Nc1cccc(Cl)c1 (stereo not shown) | 2.94%
CC1=C(C(=O)OCC(Cl)(Cl)Cl)C(c2cccc3ccccc23)NC(=O)N1 (stereo not shown) | 20.5%
Cc1ccccc1OCc1nc(C#N)c(N2CCCC2)o1 | -7.55%
O=C(NCCC1=CCCCC1)C1CCCN(c2nc3ccccc3o2)C1 (stereo not shown) | -1.34%
